# Experimental data published in ChEMBL document CHEMBL4888484, “Replenishing the malaria drug discovery pipeline: Screening and hit evaluation of the MMV Hit Generation Library 1 (HGL1) against asexual blood stage Plasmodium falciparum ,using a nano luciferase reporter read-out” (2022).
# Among all 150,000 compounds or so, about 540 (0.36%) showed an effect of 50% or more. Some of the results follow.
# Tested on: Plasmodium falciparum
# Assay: Primary screen in NF54 nanoGlo assay, in single point, at 2uM, 72h; a lower Z score goes with more inhibition
# Type: functional, Erythrocyte
# Settings: timepoint 72 hour
SMILES,% Inhibition,Z score
O=C(c1cnoc1-c1ccccc1)N1CCCN(C(=O)[C@@H]2CCCO2)CC1,-7%,1.31
Cc1ccccc1Nc1nc(N)nc(Cn2nnnc2C(C)(C)C)n1,4%,-0.67
COc1ccc([C@H](CO)N(C)Cc2ccc(-n3cccn3)cc2)cc1,-8%,1.45
CC(C)S(=O)(=O)N1CCC[C@H](c2nnc(CN3CCCCC3)n2C)C1,-5%,0.81
COC(=O)N1CCn2nc(CN3CCOc4ccc(CO)cc4C3)cc2C1,0%,0.03
Cn1ccc(C(=O)NC(C2CC2)C2CC2)cc1=O,0%,0
COc1ccc(-c2ncc(C#N)c(N)n2)cn1,0%,-0.03
CC(C)Oc1cncc(Br)c1,5%,-0.82
CC(C)C[C@H](NC(=O)CCc1ccccc1)C(=O)N(C)C,-10%,1.79
CC1(C)CN(C(=O)Cn2cc(NC(=O)c3cnccn3)cn2)CCO1,-8%,1.24
COCCn1cnnc1CCNC(=O)N1CCOc2ccc(CO)cc2C1,-14%,2.13
CO[C@H]1C[C@H]2CN(C(=O)NCc3ccco3)[C@@H](Cc3ccccc3)C(=O)N2C1,-8%,1.21
CC(C)CCNC(=O)[C@]1(C)Cn2c(cc3ccccc32)C(=O)N1Cc1ccccc1F,-6%,0.88
CCc1cc(N2CCC(N[C@@H](CC)c3ncnn3C)CC2)nc(N(C)C)n1,5%,-0.91
C/C=C/CN1C(=O)N[C@@](Cc2cccc(OC)c2)(C2CCNCC2)C1=O,-4%,0.64
N#CC1=NN(c2ccc(OCc3ccccc3)cc2)[C@H]2CCCCCN2C1=O,-31%,3.58
CCCN(CC(=O)OC)C(=O)CNC(=O)c1ccc(OC(C)C)cc1,-13%,1.65
Cc1ccc(-n2[nH]c(C(=O)NCc3ccc(Cn4ccnc4)cc3)cc2=O)cc1,-12%,1.65
CN(C(=O)C[C@@H]1C=CCC1)C1CCCC1,0%,-0.03
CCc1nc(N(C)C[C@H](O)c2cccnc2)c2ccsc2n1,2%,-0.34
CC(C)(C)OC(=O)CCC(=O)N1CCS(=O)(=O)C2CCCCC21 (stereo not drawn),1%,-0.09
COC[C@H]1CCCCN1C(=O)CCc1nnc[nH]1,-1%,0.12
Cc1nc(N(C)Cc2cc(-c3ccccc3)on2)c2cccnc2n1,-29%,3.12
COc1ccc2c(c1)N1CCN(CC(=O)N3CCOCC3)CC1C(C(=O)NCc1cccc(F)c1)C2 (stereo not drawn),-10%,0.95
